Reference: patent publication US11178870B2 (priority 2017, dated 2021)

Experiments:
Type in all cases: in vivo
Plasmopara viticola = assay: Test Example G: Downy mildew on vine; settings: for Test G control value: Downy mildew on vine, 250 ppm sprayed, 2.5 ml/pot, 7 to 10 days after inoculation; for control value, Test G (downy mildew on vine): 250 ppm sprayed (2.5 ml/pot) before inoculation, assessed 7 to 10 days after inoculation
Alternaia brassicicola = assay: Test Example C: Alternaria sooty spot on cabbage; settings: for Test C control value: Alternaria sooty spot on cabbage; for control value, Test C (Alternaria sooty spot on cabbage): Table 7, Test C
Puccinia recondita = assay: Test Example E: Brown rust on wheat; settings: for Test E control value: Brown rust on wheat; for control value, Test E (brown rust on wheat): Table 7, Test E
Botrytis cinerea = assay: Test Example B: Gray mold on tomato; settings: for Test B control value: Gray mold on tomato; for control value, Test B (gray mold on tomato): Table 7, Test B
[1] = tested on: Blumeria graminis f. sp. hordei; assay: Test Example D: Powdery mildew on barley; settings: for Test D control value: Powdery mildew on barley; for control value, Test D (powdery mildew on barley): Table 7, Test D

Row | SMILES | Test G control value (Plasmopara viticola) | Test C control value (Alternaia brassicicola) | Test E control value (Puccinia recondita) | Test B control value (Botrytis cinerea) | Test D control value [1] | control value, Test G (downy mildew on vine) (Plasmopara viticola) | control value, Test C (Alternaria sooty spot on cabbage) (Alternaia brassicicola) | control value, Test E (brown rust on wheat) (Puccinia recondita) | control value, Test B (gray mold on tomato) (Botrytis cinerea) | control value, Test D (powdery mildew on barley) [1]
1 | CCn1c(-c2ccc(F)cc2F)c(-n2ncc(C)c2Cl)cc(Cl)c1=O [Compound 182] | H (H shows the control value more than 50%) | H (H shows the control value more than 50%) | H (H shows the control value more than 50%) | H (H shows the control value more than 50%) | H (H shows the control value more than 50%) | – | – | – | – | –
2 | CCn1c(-c2ccccc2Br)c(-n2cc(Cl)cn2)ccc1=O [Compound 183] | H (H shows the control value more than 50%) | H (H shows the control value more than 50%) | H (H shows the control value more than 50%) | H (H shows the control value more than 50%) | H (H shows the control value more than 50%) | – | – | – | – | –
3 | CCn1c(-c2c(F)cc(F)cc2F)c(-n2cc(Cl)cn2)ccc1=S [Compound 185] | – | – | – | – | – | L (L shows the control value of 50% or less) | L (L shows the control value of 50% or less) | H (H shows the control value more than 50%) | H (H shows the control value more than 50%) | H (H shows the control value more than 50%)
4 | Cc1cnn(-c2ccc(=O)n(CC(F)F)c2-c2c(F)cccc2F)c1 [Compound 186] | – | – | – | – | – | L (L shows the control value of 50% or less) | H (H shows the control value more than 50%) | H (H shows the control value more than 50%) | H (H shows the control value more than 50%) | H (H shows the control value more than 50%)
5 | Cc1cnn(-c2cc(Cl)c(=O)n(C)c2-c2c(F)cccc2F)c1Cl [Compound 187] | – | – | – | – | – | L (L shows the control value of 50% or less) | H (H shows the control value more than 50%) | H (H shows the control value more than 50%) | H (H shows the control value more than 50%) | H (H shows the control value more than 50%)
6 | Cc1cnn(-c2cc(Br)c(=O)n(C)c2-c2c(F)cccc2F)c1Cl [Compound 189] | – | – | – | – | – | L (L shows the control value of 50% or less) | H (H shows the control value more than 50%) | H (H shows the control value more than 50%) | H (H shows the control value more than 50%) | H (H shows the control value more than 50%)
7 | CCn1c(-c2c(F)cc(F)cc2F)c(-n2cc(F)cn2)ccc1=O [Compound 191] | – | – | – | – | – | L (L shows the control value of 50% or less) | H (H shows the control value more than 50%) | H (H shows the control value more than 50%) | H (H shows the control value more than 50%) | H (H shows the control value more than 50%)
8 | CCn1c(-c2c(F)cc(F)cc2F)c(-n2cc(F)cn2)cc(Cl)c1=O [Compound 192] | – | – | – | – | – | H (H shows the control value more than 50%) | H (H shows the control value more than 50%) | H (H shows the control value more than 50%) | H (H shows the control value more than 50%) | H (H shows the control value more than 50%)
9 | CCn1c(-c2c(F)cc(F)cc2F)c(-n2cc(F)cn2)cc(Br)c1=O [Compound 194] | – | – | – | – | – | L (L shows the control value of 50% or less) | H (H shows the control value more than 50%) | H (H shows the control value more than 50%) | H (H shows the control value more than 50%) | H (H shows the control value more than 50%)
10 | CCn1c(-c2ccccc2Br)c(-n2cc(Cl)cn2)cc(Cl)c1=O [Compound 195] | – | – | – | – | – | L (L shows the control value of 50% or less) | H (H shows the control value more than 50%) | H (H shows the control value more than 50%) | H (H shows the control value more than 50%) | L (L shows the control value of 50% or less)
11 | CCn1c(-c2ccccc2Br)c(-n2cc(Cl)cn2)cc(Br)c1=O [Compound 196] | – | – | – | – | – | L (L shows the control value of 50% or less) | H (H shows the control value more than 50%) | H (H shows the control value more than 50%) | H (H shows the control value more than 50%) | L (L shows the control value of 50% or less)
12 | CCn1c(-c2c(F)cccc2Cl)c(-n2cc(Cl)cn2)cc(Br)c1=O [Compound 199] | – | – | – | – | – | L (L shows the control value of 50% or less) | H (H shows the control value more than 50%) | L (L shows the control value of 50% or less) | L (L shows the control value of 50% or less) | L (L shows the control value of 50% or less)
13 | CCOc1cc(F)c(-c2c(-n3cc(Cl)cn3)cc(Cl)c(=O)n2CC)c(F)c1 [Compound 200] | – | – | – | – | – | L (L shows the control value of 50% or less) | H (H shows the control value more than 50%) | H (H shows the control value more than 50%) | H (H shows the control value more than 50%) | H (H shows the control value more than 50%)
